Results from the supplement of paper PMC10441789.
The list shows a part of the results. Antibody binding of pooled human sera (four to six donors per pool; dilution not stated) to peptides of the Trypanosoma cruzi antigen TSSA on microarrays. Quantile-normalised fluorescence in arbitrary units, mean of duplicate arrays; higher = more binding. No active / inactive call. The uninfected pools are read here as the healthy donors of the same country. The strongest signals lie near the top of the scale (about 60,000).

What was measured:
Assay in all cases: antibody binding signal (normalised fluorescence) (arbitrary fluorescence units); higher = stronger serum antibody binding to peptide
[1] = system: pooled sera of chronic Chagas disease patients, Argentina
Procedure: (§1)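 Microarray of overlapping 15-residue peptides of the four Trypanosoma cruzi TSSA reference variants and 8- to 13-residue peptides of TSSAII 24-62, probed with one serum pool per country.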

[2] = system: pooled sera of chronic Chagas disease patients, Bolivia
Procedure: as §1

[3] = system: pooled sera of chronic Chagas disease patients, Brazil
Procedure: as §1

[4] = system: pooled sera of chronic Chagas disease patients, Colombia
Procedure: as §1

[5] = system: pooled sera of chronic Chagas disease patients, Mexico
Procedure: as §1

[6] = system: pooled sera of chronic Chagas disease patients, USA
Procedure: as §1

[7] = system: pooled sera of uninfected people, Argentina
Procedure: as §1

[8] = system: pooled sera of uninfected people, Bolivia
Procedure: as §1

[9] = system: pooled sera of uninfected people, Colombia
Procedure: as §1

[10] = system: pooled sera of uninfected people, Mexico
Procedure: as §1

[11] = system: pooled sera of uninfected people, USA
Procedure: as §1

[12] = system: pooled sera of uninfected people, Brazil
Procedure: as §1

Sequence	antibody binding signal [1]	antibody binding signal [2]	antibody binding signal [3]	antibody binding signal [4]	antibody binding signal [5]	antibody binding signal [6]	antibody binding signal [7]	antibody binding signal [8]	antibody binding signal [9]	antibody binding signal [10]	antibody binding signal [11]	antibody binding signal [12]
PSGTENKPATGEAPS	45300	51400	52400	1030	2080	48100	2380	2030	402	549	561	
ANGGSTSS	485	864	683	192	714	1830	307	386	122	285	286	
GSTSSTPP	281	214	319	179	189	135	227	197	98.7	107	95	171
ENKPATGEAPSQ	45900	48400	48700	291	372	46500	1060	840	136	212	206	
PSGTENKPA	50000	36600	49400	2060	8250	17500	2530	1890	872	702	1080	
GGSTISTPPSGTDKK	29600	3490	34100	2130	42200	6430	414	107	152	617	172	
GEAPSQPG	7410	25200	12800	176	138	1340	108	105	81.8	107	112	413
KPATGEAP	42600	42200	47400	163	240	34800	916	877	358	206	208	174
GGSTSSTPPSGTENK	51100	43000	48900	435	6870	28200	2880	550	623	810	453	
ENKPATGEAPS	45500	47900	48100	299	324	42600	1010	852	142	200	159	244
CTTANGGSTSSTPPG	564	709	1770	270	207	248	226	254	675	212	200	
TDKKTAAGGTPSPSG	1540	256	183	10600	443	1610	112	113	251	233	189	
QPGASSGEAEASS	840	115	8100	143	168	143	156	161	121	94.4	106	
TENKPATGEA	41500	27700	31800	203	569	17500	354	716	135	322	382	183
PSGTENKP	50900	37100	48300	1470	9360	13700	1780	959	711	430	853	
ATGEAPSQ	19300	29700	16900	464	381	17700	187	189	94.9	86.7	74.1	
TISTPPSGTDKKTAA	34800	5230	33400	7340	41600	3810	1290	123	169	951	326	225
NGGSTISTPPSGTDK	36800	26100	33000	443	52000	8740	676	221	219	266	160	
PATGEAPSQPGAS	27800	43000	44800	198	212	25700	906	919	352	172	938	350
STISTPPSGTDKKTA	20800	17200	39300	3670	27900	7110	458	128	221	1580	232	
NKPATGEAPSQ	52000	53600	53900	360	232	42600	1020	634	158	315	181	
STSSTPPSG	279	238	224	367	161	137	183	146	99.2	148	103	387
DKKTAAGGTPSPSGA	892	240	360	9850	504	1770	152	101	231	193	215	
EKKAAAGEAPSPSGA	3120	180	2080	462	479	10500	233	1040	92.8	162	830	
SSGEAEAS	128	96.3	224	85.4	104	78.3	193	125	77.1	66	191	99.3
STPPSGTEKKAAAGE	36000	33600	32000	375	13800	5410	1160	336	181	138	132	450
GGSTSSTPPSGTE	9990	265	10800	153	164	101	162	103	95.5	136	63.8	135

Sequence	antibody binding signal [1]	antibody binding signal [2]	antibody binding signal [3]	antibody binding signal [4]	antibody binding signal [5]	antibody binding signal [6]	antibody binding signal [7]	antibody binding signal [8]	antibody binding signal [9]	antibody binding signal [10]	antibody binding signal [11]	antibody binding signal [12]
TENKPATGEAP	48700	42600	45700	348	629	43000	1070	894	167	232	228	260
TTANGGSTISTPPSG	226	266	294	145	200	159	986	214	1270	177	155	220
TPPSGTENK	51900	46300	49500	394	8460	25200	3190	516	901	399	418	
SGTEKKAAAGEAPSP	692	599	4720	838	811	12400	106	766	130	122	188	
KPATGEAPSQPG	47700	43700	47600	192	345	37600	820	845	144	219	171	
PSQPGASSGEAEASS	195	116	8040	130	149	99.9	154	96.3	101	95.8	67.4	
GSTSSTPPS	247	251	275	228	193	147	199	216	105	118	78	
GTEKKAAAGEAPSPS	670	215	1580	709	939	11200	154	928	106	115	129	118
SGTDKKTAAGEAPSP	244	669	1590	2570	493	8690	196	174	1240	270	122	
TENKPATG	45000	1350	1360	167	981	506	532	1540	191	259	223	
ATGEAPSQPGA	20700	34100	37700	257	255	15000	271	195	170	238	146	
SSTPPSGTENKP	49200	40000	44900	280	9550	30600	7740	969	736	427	727	
PPSGTENKPAT	50000	45800	50200	2240	5650	25400	5710	1960	842	453	1200	
GSTSSTPPSGTEN	44100	43200	29300	185	330	314	397	198	106	135	171	
SSGEAEASS	173	95.2	162	109	157	76	144	108	100	79.3	110	
ANGGSTISTPPSGTD	1730	3360	5920	2360	1720	1420	257	240	183	207	82.2	
GTENKPATGEAPSQP	49700	52300	53400	1170	2760	45400	1130	1560	164	245	155	
GSTSSTPPSGTE	13200	749	11800	167	338	100	165	119	84.5	107	58.3	
NGGSTSSTPPGTDKK	5350	539	2780	12600	2710	15500	290	153	267	1690	270	
SSTPPSGTE	12400	141	9360	94.1	139	67.2	95	71.8	80.2	111	78.1	
TPPSGTEKKAAAGEA	35000	14000	27800	385	7460	1940	827	353	149	123	133	
KPATGEAPSQPGA	50300	41900	49400	183	335	43100	915	898	210	339	257	
GEAPSQPGASSGEAE	7950	19200	10000	151	84.8	444	298	98.1	139	93	76.9	
EAPSQPGA	4360	11900	1320	74.7	87.1	186	176	139	276	237	216	
STPPSGTENKPAT	46000	48700	54300	2070	6710	46100	8660	1320	880	714	979	
TPPSGTENKPA	51700	45700	51900	323	9930	34600	7940	1520	748	463	950	
GTDKKTAAGGTPSPS	469	209	181	10200	485	1870	94.3	172	298	171	125	
